The whole screen tested about 340,000 compounds, of which about 6,900 (2%) were called active. No stated cut-off is given here; in the data, active means inhibition above about 30%; inactive means below that, where a call was filed. The list shows a part of the results, in another mix than the full data. The source gives no active or inactive call for entries shown without one.
biological target: D(2) dopamine receptor (Homo sapiens) (UniProt P14416); test: HTS Assay for Allosteric Antagonists of the Human D2 Dopamine Receptor: Primary Screen for Antagonists; conditions: HEK293 TREx D2 cells, calcium flux, dopamine EC80; at 10 µM; stronger effect = higher value; further: 0% is about no effect
Chain of UniProt P14416 (P14416 whole entry, looked up): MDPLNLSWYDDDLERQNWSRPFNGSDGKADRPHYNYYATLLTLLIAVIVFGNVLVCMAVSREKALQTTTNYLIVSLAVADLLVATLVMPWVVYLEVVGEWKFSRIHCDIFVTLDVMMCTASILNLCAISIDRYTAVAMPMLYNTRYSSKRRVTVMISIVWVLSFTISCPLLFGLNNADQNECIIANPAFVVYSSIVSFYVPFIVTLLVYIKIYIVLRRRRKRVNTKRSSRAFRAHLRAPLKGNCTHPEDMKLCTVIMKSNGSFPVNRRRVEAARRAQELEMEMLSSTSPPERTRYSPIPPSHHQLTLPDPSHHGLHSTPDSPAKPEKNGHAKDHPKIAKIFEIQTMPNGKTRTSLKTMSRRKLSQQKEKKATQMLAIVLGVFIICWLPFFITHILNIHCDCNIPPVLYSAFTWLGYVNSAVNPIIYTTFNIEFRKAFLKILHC
In short: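 HEK293 T-REx D2 cells, tet-induced, calcium dye no-wash. Cpd pintool add, 180 s kinetic, then EC80 DA, 180 s kinetic. Ca flux read.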

Structure (SMILES)	inhibition
CCOCCc1nn2c(=O)cc(COC(=O)c3ccccc3NC(=O)C3CCCCC3)nc2s1	3.46%
COc1cccc(-c2nc(SCC(=O)Nc3ccc4c(c3)OCCO4)c(-c3ccccc3)[nH]2)c1	-7.85%
O=C(NCCn1cc(SCc2ccc(Cl)cc2)c2ccccc21)c1cccs1	1.03%
COc1cc(OC)c(N(C)C(=O)CCNC(=O)Cn2cnc3ccccc3c2=O)cc1Cl	19.5%
CN(C)CCNC(=O)Cn1c(=O)c2cccn2c2ccc(F)cc21	-16.2%
O=S1(=O)c2ccccc2N(Cc2cccc(C(F)(F)F)c2)c2ccccc21	6.63%
CCCCN(CCCC)CCNC(=O)Cn1nc(CC)n2c(cc3sc(C)cc32)c1=O	4.51%
Cc1cccc(NC(=O)Cn2c(=O)n(CCCS(=O)(=O)C3CCCCC3)c(=O)c3ccccc32)c1	-2.16%
CCOCCCNC(=O)c1[nH]c2cc(C)ccc2c1Sc1ccc(Cl)cc1	12.2%
CCOC(=O)c1ccc(-n2c(C)nc3c(cnn3-c3ccc(Cl)cc3)c2=O)cc1	9.62%
c1ccc(Cc2nnc3sc(-c4cccs4)nn23)cc1	active: 73.1%
COc1ccc(CCNC(=O)c2c(O)nc3c(C)cccn3c2=O)cc1	6.15%
COc1ccc(C(=O)N2c3ccccc3C(C)(c3ccc(Cl)cc3)CC2(C)C)cc1 (stereo not given)	-17.3%
Cc1ccc(-c2onc(C)c2C)cc1S(=O)(=O)N1c2ccccc2CC1C (stereo not given)	-5.05%
Cc1ccccc1Nc1c(-c2ccco2)nc2c(C)cccn12	5.79%
O=C(c1cccc(C(F)(F)F)c1)C1CCCN(Cc2cccn2-c2ncccn2)C1 (stereo not given)	active: 32%
Cc1ccc(NC(=O)CCS(=O)(=O)c2cccc3nonc23)cc1Cl	3.5%
CC1CCCCN1S(=O)(=O)c1ccc(C(=O)Nc2sc3c(c2C(N)=O)CC(C)(C)NC3(C)C)cc1 (stereo not given)	5.26%
Cc1ccc(CS(=O)(=O)c2ncc(Cl)c(C(=O)Nc3nc4ccc(C)cc4s3)n2)cc1	-15.4%
Cc1n[nH]c(C)c1S(=O)(=O)N(CC(=O)Nc1ccc(C(F)(F)F)cc1)c1ccc(C(C)C)cc1	11%
Cn1c(=O)[nH]c(=O)c2c1nc(N1CCN(CCO)CC1)n2Cc1ccccc1Cl	active: 30%
Cc1ccc(C)c(CN2C(=O)c3ccccc3S(=O)(=O)c3ccc(C(=O)N4CCN(c5ccccc5)CC4)cc32)c1	1.06%
COc1ccccc1OCCSc1nc2ccccc2n1CC(=O)N1CCOCC1	15.5%
C#CCSc1nc2sc3c(c2c(=O)n1Cc1ccccc1)CCCC3	13.3%

Structure (SMILES)	inhibition
O=C(Cn1c(=O)oc2ccccc21)Nc1ccc(C(=O)O)cc1	5.92%
COc1cc(NC(=O)c2cccc3c2C(=O)N(C2CCCCC2)C3)cc(OC)c1	1.84%
CCn1c(=O)c(C(=O)Nc2ccc(C(C)=O)cc2)nc2ccccc21	8.98%
CCOc1ccccc1NC(=O)CSc1nc2cc(OC)c(OC)cc2c2nc(-c3ccccc3)nn12	-7.67%
Oc1c(C(c2ccc(Cl)cc2)N2CCC3(CC2)OCCO3)sc2nc(-c3ccco3)nn12 (stereo not given)	3.34%
O=C(NCCc1ccc(Cl)cc1)c1cnc2sc(N3CCCCC3)nn2c1=O	0.0221%
COc1ccc2c(c1)sc1ncc(C(=O)NCc3ccc(OC(C)C)cc3)c(=O)n12	6.73%
Cc1ccc(NC(=O)Cn2c(=O)n(Cc3ccco3)c(=O)c3sc4ccccc4c32)cc1C	15.4%
COc1ccc(-c2cc(C(F)(F)F)nc(SCCC(=O)Nc3cc(C)ccc3O)n2)cc1	7.81%
CCc1ccc(-c2[nH]c3c(c2-c2sc(C)c(C(=O)OC)c2O)c(=O)[nH]c(=O)n3C)cc1	0.614%
Cc1nn(C(=O)c2ccc(Br)cc2)c(C)c1S(=O)(=O)N1CCOCC1	-0.897%
Cc1coc2c(C)c3oc(=O)c(CCC(=O)NCCc4ccccc4)c(C)c3cc12	-4.91%
CCOc1ccc(CCNC(c2cccc(Cl)c2)c2nnc(-c3ccccc3)o2)cc1OCC (stereo not given)	-0.21%
Cn1c(NCCO)nc2c1c(=O)n(Cc1cccc(F)c1)c(=O)n2C	7.11%
COC(=O)c1ccc2c(c1)N(Cc1ccc(F)cc1)C(=O)c1ccccc1S2	5.33%
COc1cccc(/C=C/c2nc(C#N)c(NCCc3ccc(OC)c(OC)c3)o2)c1	-4.97%
CCCCN(CCCC)S(=O)(=O)c1ccc2oc(C(=O)NCc3ccc(C)cc3)c(C)c2c1	-3.76%
CCCCN1C(=O)C(O)(c2c[nH]c3ccccc23)c2cc(Br)ccc21 (stereo not given)	0.196%
COc1ccc(Cl)cc1-n1c(/C=C/c2cccc3ccccc23)nc2ccccc2c1=O	-4.22%
COc1ccc(-c2nc(CSc3nncn4c3cc3occc34)c(C)o2)cc1	-5.06%
Clc1cccc(OCCCN2CCCC2)c1Cl	active: 51.6%
Cc1ccccc1-c1noc(CCC(=O)Nc2cccc(C)c2C)n1	-3.67%
O=C(Nc1cccc(OCc2cc(=O)n3c4c(sc3n2)CCCC4)c1)c1ccc(F)cc1	11.4%
Cc1ccc2nc(-c3cc(NC(=O)/C=C/c4ccccc4)ccc3Cl)oc2c1	-1.98%

Structure (SMILES)	inhibition
CCOc1ccc(-c2nnc(SCC(=O)NCCc3ccc(OC)c(OC)c3)nc2-c2ccc(OCC)cc2)cc1	16.2%
O=C(c1cccc(Cl)c1)N1CCN(CCc2ccncc2)CC1	-6.82%
COc1cc(Cl)c(C)cc1NC(=O)c1cn(C2CCCC2)c(=O)c2c1c1ccccc1n2C	2.67%
CCOc1ccccc1NC(=O)Cn1c(=O)n(-c2ccc(F)cc2)c(=O)c2sc3ccccc3c21	-5.59%
COc1ccccc1C1SCCN1S(=O)(=O)c1cccc(C(F)(F)F)c1 (stereo not given)	active: 47.4%
COc1ccc(CCNC(=O)CCCn2c(=O)c3ccccc3n(CC(=O)Nc3cc(Cl)ccc3C)c2=O)cc1OC	20.3%
Cn1c(NCCO)nc2c(c1=O)C1(CCCCC1)Cc1ccccc1-2	active: 67.7%
CCOC(=O)c1c(NC(=O)COc2cc(C)ccc2C(C)C)sc(C)c1C	-5.78%
CCOc1cccc(C(c2c(C)n(C)n(-c3ccccc3)c2=O)c2c(C)n(C)n(-c3ccccc3)c2=O)c1OC	4.46%
COCCNCC1C(Oc2ccc(Cl)cc2)C(=O)N1c1ccccc1C (stereo not given)	active: 50.4%
Cc1ccc(CSCC(=O)N2CCN(c3ccccc3F)CC2)cc1	-23.4%
CCn1cc(CCC(=O)NCc2ccccc2OC)c2ccccc21	11.4%
Cc1ccc(S(=O)(=O)CC(=O)Nc2sc3c(c2C#N)CCCC3)cc1	-25.3%
CC1=C(C(=O)Nc2ccccc2)C(c2cccnc2)n2nc(SCc3ccccc3Cl)nc2N1 (stereo not given)	-8.69%
CCOC(=O)Cn1c(=O)n(C2CCCCC2)c2nc(-c3cccc(F)c3)nc(C(N)=O)c21	15.9%
Cc1ccc(S(=O)(=O)c2cc3cc(C(=O)O)ccc3oc2=O)cc1	26.8%
CCCN(CCC)CCCNC(=O)C1CCN(S(=O)(=O)CC)CC1	11.5%
COc1ccc(C)c2sc(N(Cc3cccnc3)C(=O)C3CCCCC3)nc12	-19.6%
CCCCCOc1c(Cl)cc(C(=O)N(Cc2ccc(C)o2)C2CCS(=O)(=O)C2)cc1Cl (stereo not given)	5.51%
CCOC(=O)c1ccc(N2C(=O)c3n[nH]c(-c4ccco4)c3C2c2ccc(O)cc2)cc1 (stereo not given)	-6.11%
CCCn1cc(S(=O)(=O)c2ccccc2)c(=O)c2cc(F)c(N3CCCC(C)C3)cc21 (stereo not given)	7.55%
COc1ccc(C)cc1NC(=O)c1c(C)oc2ncn(CC(C)C)c(=O)c12	-4.54%
Cc1c(C)n(C)c2ccc(C(=O)NCCCN3CCCCC3C)cc12 (stereo not given)	-5.11%
O=C(c1cc2c(s1)-c1ccccc1OC2)N1CCN(c2ccccc2F)CC1	-5.19%

Structure (SMILES)	inhibition
CCOC(=O)C1=C(c2ccccc2)O/C(=C(/C(=O)OC)C(F)(F)F)S1	active: 39%
CCCCN(CC)CCCNC(=O)c1nn(C)c2c1CS(=O)(=O)c1ccccc1-2	15%
Cc1ccc(C)c(NC(=O)Cn2cc(C(=O)c3ccco3)c3ccccc32)c1	-22.4%
CCOC(=O)C1CCCN(c2cc(C)nc3c(-c4ccccc4OC)c(C)nn23)C1 (stereo not given)	-25%
COc1cccc(Cn2c(CNC(=O)Cc3cccc(C)c3)nc3cccnc32)c1	-20.7%
Cc1ccccc1NC(=O)Cn1c(=O)oc2cc(Br)ccc21	-6.99%
COc1ccccc1-c1nc2c(c(SCC(=O)Nc3ccc(C)c(C)c3)n1)Cc1c(CO)cnc(C)c1O2	9.99%
COc1ccc(C2=C(C)C(=NCCCN3CCN(c4cc(C)ccc4C)CC3)NS2(=O)=O)cc1	-1.07%
COc1ccc(N(CC(=O)Nc2cccc(Cl)c2C)S(=O)(=O)c2c(C)nn(C)c2C)cc1	2.84%
Cc1ccc(NC(=O)c2cccc3c2C(=O)N(C2CCCCC2)C3)c(C)c1	23.6%
N#Cc1ccccc1Cn1c(=O)n(CCCC(=O)NCc2ccccc2Cl)c(=O)c2ccccc21	1.6%
O=C(Nc1ccc(F)c(Cl)c1)C1CCN(C(=O)c2ccc(F)cc2)CC1	0.446%
Cc1nc2ccn(Cc3ccco3)c(=O)c2cc1C(=O)NCc1ccccc1F	16.1%
COc1ccc(Cl)cc1NC(=O)CSC1=Nc2ccccc2C2=NC(CCC(=O)NCc3ccc(F)cc3)C(=O)N12 (stereo not given)	-3.5%
O=C(NCc1ccccc1Cl)C1CCN(S(=O)(=O)Cc2ccccc2)CC1	16.8%
CCOC(=O)c1ccc(NC(=O)c2cnn(-c3ccc(C)cc3C)c2C2CCN(C(=O)OC(C)(C)C)CC2)cc1	-13.7%
C/C(=N\NC(N)=O)c1cc(Cl)cc(Cl)c1O	active: 53.6%
CCOc1cc(C(=O)Nc2ccc3nc(Nc4cccc(Cl)c4)cc(C)c3c2)cc(OCC)c1OCC	-5.35%
CCCCCCNc1nc2c(c(=O)n(C)c(=O)n2C)n1Cc1cccc(C)c1	5.54%
Cc1nn2c(C)c(C(=O)N3CCN(c4ccccc4F)CC3)cnc2c1-c1ccc(F)cc1	8.27%
Cc1nnc(SCc2cc(=O)n3cccc(C)c3n2)s1	-27.8%
Cc1cccc(CCNC(=O)C2CCC(CNS(=O)(=O)c3ccccc3)CC2)c1 (stereo not given)	14.8%
COc1cccc(-c2nc(CS(=O)(=O)CC(=O)NCCc3ccc(OC)cc3OC)c(C)o2)c1	-20.1%
